Screen size: about 310,000 compounds; about 14,000 (4.5%) showed an effect of 50% or more. The effect is printed as a negative number. The list shows a part of the results.
What follows are compounds tested against human ether-à-go-go-related gene (hERG) potassium channel (human, UniProt Q12809) (assay: primary screen, population patch clamp on CHO cells stably expressing hERG).
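Also: peak tail current of the secondary pulse compared with the same well before compound.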

Chain of human ether-à-go-go-related gene (hERG) potassium channel (Q12809 whole entry, looked up): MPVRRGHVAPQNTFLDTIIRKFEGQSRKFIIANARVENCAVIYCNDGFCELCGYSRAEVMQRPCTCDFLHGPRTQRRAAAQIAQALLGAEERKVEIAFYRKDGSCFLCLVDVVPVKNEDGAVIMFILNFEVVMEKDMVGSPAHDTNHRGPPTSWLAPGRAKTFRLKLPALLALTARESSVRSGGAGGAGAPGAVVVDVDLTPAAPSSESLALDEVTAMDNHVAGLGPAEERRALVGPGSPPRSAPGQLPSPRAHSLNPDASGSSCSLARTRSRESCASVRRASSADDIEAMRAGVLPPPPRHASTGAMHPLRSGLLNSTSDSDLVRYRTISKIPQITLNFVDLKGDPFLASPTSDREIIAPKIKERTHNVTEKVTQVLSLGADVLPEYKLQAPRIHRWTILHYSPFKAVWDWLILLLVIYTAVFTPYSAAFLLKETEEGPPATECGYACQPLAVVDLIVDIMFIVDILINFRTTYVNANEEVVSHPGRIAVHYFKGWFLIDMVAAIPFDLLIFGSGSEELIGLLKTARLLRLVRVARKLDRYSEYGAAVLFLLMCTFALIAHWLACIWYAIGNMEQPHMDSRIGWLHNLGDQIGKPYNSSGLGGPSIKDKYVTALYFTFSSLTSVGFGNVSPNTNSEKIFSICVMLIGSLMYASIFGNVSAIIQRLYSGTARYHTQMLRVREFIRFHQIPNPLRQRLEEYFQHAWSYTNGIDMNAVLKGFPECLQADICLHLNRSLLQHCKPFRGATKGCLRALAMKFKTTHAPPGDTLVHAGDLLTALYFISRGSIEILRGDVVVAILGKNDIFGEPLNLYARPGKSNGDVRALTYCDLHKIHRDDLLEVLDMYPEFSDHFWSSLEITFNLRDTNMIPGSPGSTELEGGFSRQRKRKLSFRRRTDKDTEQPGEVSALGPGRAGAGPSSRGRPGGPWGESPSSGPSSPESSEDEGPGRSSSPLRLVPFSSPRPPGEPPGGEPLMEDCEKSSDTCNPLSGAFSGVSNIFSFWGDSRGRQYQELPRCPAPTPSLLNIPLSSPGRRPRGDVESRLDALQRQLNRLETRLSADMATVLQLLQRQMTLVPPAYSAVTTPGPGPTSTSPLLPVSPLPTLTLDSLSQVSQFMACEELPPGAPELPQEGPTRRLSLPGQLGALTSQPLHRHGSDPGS

Row | SMILES | hERG current change (%, negative = inhibition) at 10uM [%]
1 | CCOc1ccc(NC(=O)NNC(=O)C2CCC(C(C)(C)C)CC2)cc1 (stereo not drawn) | 12.1
2 | CCOc1ccc(NC(=O)N2CCN(Cc3ccc4c(c3)OCO4)CC2)cc1 | -35.4
3 | Cc1ccc(NC(=O)CCS(=O)(=O)c2ccccc2)cc1S(=O)(=O)N1CCOCC1 | 18.4
4 | CC(NC(=O)C1CCC(CNS(=O)(=O)c2ccccc2)CC1)c1ccc2c(c1)OCCO2 (stereo not drawn) | 1.06
5 | CCc1ccc(-n2c([O-])c(C(C)=O)c(=O)[nH]c2=O)cc1.C[NH+](C)C | -9.78
6 | C/C(=C\C(=O)c1ccc(Br)cc1)NNC(=O)c1ccc(O)cc1 | 5.39
7 | COC(=O)C1=C(C)N(c2ccc(OC)cc2)C(=O)/C1=C\c1cccs1 | -3.08
8 | COc1ccc(C(=O)N(C)C(C)c2ccon2)cc1OC1CCN(C(C)C)CC1 (stereo not drawn) | 7.06
9 | COCCCN1C(=O)c2ccc(C(=O)OCC(=O)N3CCN(c4ccccc4)CC3)cc2C1=O | -38.2
10 | O=C(Cc1cccs1)Nc1ccon1 | 18.7
11 | O=C(CSc1nnc(CNC(=O)C23CC4CC(CC(C4)C2)C3)n1-c1ccccc1)Nc1ccc(F)cc1 | 3.47
12 | COc1ccc(S(=O)(=O)NC2CCN(Cc3ccccc3)CC2)cc1NC(C)=O | -24.6
13 | S=C(Nc1ccc(Br)cc1Cl)N1CCC2(CC1)OCCO2 | 8.18
14 | Cc1cccc(CN2CCc3c([nH]c4ccccc34)C2C(C)(C)C)n1 (stereo not drawn) | 3.57
15 | CS(=O)(=O)N(CCC#N)Cc1ccco1 | 23.2
16 | CC(=O)NCCn1c(C)cc2ccccc21 | -55.1
17 | NC(=O)c1ccccc1NC(=O)c1cccc(C(=O)Nc2ccccc2C(N)=O)n1 | 10.5
18 | CCCC(=O)Nn1cnc2c(c1=O)C1(CCCC1)Cc1ccccc1-2 | -2.16
19 | CNC(=S)NNC(=O)CSCc1c(Cl)cccc1Cl | 16.7
20 | Fc1cccc(Cn2cc(C(=S)N3CCOCC3)c3ccccc32)c1 | -2.28
21 | COc1ccc(C(=O)NCC(=O)N2CCc3ccccc3C2)cc1 | -2.27
22 | O=C(COc1ccc([N+](=O)[O-])cc1)NCc1ccncc1 | -67.6
23 | O=C(CNC(=O)c1ccc(Br)o1)NNC(=O)c1ccc(Br)cc1 | -35.6

Row | SMILES | hERG current change (%, negative = inhibition) at 10uM [%]
24 | O=c1c(Cc2ccc(F)cc2)c(O)ccn1CCc1cnc[nH]1 | 47.3
25 | COc1ccc(C(=O)Nc2scc(-c3ccc(Cl)cc3Cl)c2C(N)=O)cc1 | 2.19
26 | CCn1c(-c2ccc(C)cc2)n[nH]c1=S | 14
27 | CCN(CC)CCN(C(=O)c1cccc([N+](=O)[O-])c1)c1nc2ccc(OC)cc2s1.Cl | -39.1
28 | COc1ccc2c(c1)cc(C(=O)N[C@@H](CCSC)C(=O)N1CCC[C@H]1C(=O)O)n2C | -2.17
29 | Cc1ccc(NC(=S)Nc2cccc3cnccc23)cc1 | 15.1
30 | O=C1CCCC/C1=C/Nc1ccc(C(=O)O)cc1 | -5.05
31 | COCCn1c(SCC(=O)N2CCCCC2)nc2ccccc2c1=O | -49.3
32 | Oc1c(Cl)cc(CN2CCCCC2)c2cccnc12 | 12.9
33 | Cc1c(C(=O)N2CCOCC2)sc(NC(=O)CCl)c1C#N | 17.9
34 | Cc1cccc(N(Cc2nnc3n2CCCCC3)C(=O)Nc2ccccc2)c1 | -0.898
35 | Cc1cc2ccccc2n1CCNC(=O)Cc1ccccc1 | 8.25
36 | Cc1nnc(N/N=C/c2ccc([N+](=O)[O-])cc2)n1N | 7.81
37 | CCCc1ccc(Oc2cc(N3CCOCC3)nc(-c3ccccc3)n2)cc1 | 21.5
38 | Cc1cc(-n2[nH]c(C)c(C)c2=O)nc(-c2ccccc2O)n1 | 8.87
39 | COc1cccc(NC(=O)c2ccccc2-c2nc(-c3ccccc3)no2)c1 | 3.33
40 | COc1ccc(CCNC(=O)C(=O)N2CCCC2)cc1OC | 19.3
41 | CCCCn1c(O)c(C(CC)=Nc2ccc(OCC)cc2)c(=O)[nH]c1=O | -19.7
42 | CCOC(=O)c1c(CN2CCOCC2)oc2ccc(OC(C)=O)cc12 | 13.9
43 | CNc1ccc(Br)cc(C(=O)/C=C/c2cc(OC)ccc2OC)c1=O | -3.83
44 | COc1ccc(NC(=O)CSCC(=O)Nc2nnc(CC(C)C)s2)cc1 | 15.1
45 | N#CC(C(=O)NC1CCCCC1)=C1CCCCC1 | -0.798

From PMC4336329 (PLoS ONE, 2015)
